# Experimental data: PubChem BioAssay AID588855 (National Center for Advancing Translational Sciences (NCATS), 2011)
# Screen size: about 410,000 compounds; about 5,000 (1.2%) were called active. This list was built around the results that the source calls inconclusive (neither active nor inactive); the mix of calls is not that of the screen. The call rests on the fitted dose curve; in most records, active means well fitted inhibition curve with a large enough effect; inconclusive means small, poorly fitted or top-dose-only effect; inactive means no such curve, though single readings can be large or run the other way. Potencies of inconclusive entries are doubtful fits and often do not repeat.
# Assay: qHTS for Inhibitors of TGF-b; further: nearly all actives have a fitted effect of over 65% in size
# Settings: HepG2 CAGA-GFP TGF-b/SMAD3 reporter, GFP fluorescence, 18 h, TGF-beta stimulated, 500 pg/mL final; series mostly up to 46.1 µM; activity, negative = inhibition: at the top concentration
# Outline: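 Inhibition was scored as loss of TGF-beta-induced (500 pg/mL final, 18 hours, 37 degrees C) GFP in HEPG2 cells carrying a CAGA-GFP reporter, in DMEM with 1% FBS. Well GFP was summed per cell; Activity was normalised to unstimulated and stimulated DMSO wells, then concentration-response fitting.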
# On the % scale 0 is the no-effect control and ±100 the full control effect; potency means the concentration at half of the fitted maximal effect; tags describe the fitted curve by direction and shape.
Structure (SMILES),Potency,"activity, negative = inhibition"
O=C(N/N=C/c1ccsc1)c1cc(-c2ccncc2)nc2ccccc12,"inconclusive: 5.01 µM [inhibitor, single point]",–
Cc1ccc(-c2nnc3ccc(SCC(=O)c4ccccc4)nn23)cc1,–,inactive: 7.85%
Cc1ccc(Cc2nc(-c3ccccn3)no2)cc1,–,inactive: -5.71%
O=C(NCCc1csc(-c2ccc(C(F)(F)F)cc2)n1)c1ccc(F)c(F)c1,active: 11.2 µM,–
Cc1nc2ccccn2c1-c1csc(Nc2cccc(O)c2)n1,"inconclusive: 3.55 µM [inhibitor, single point]",–
CCOc1ccc(-c2cc(CCCC(=O)NCCc3ccc(Cl)cc3)no2)cc1,–,inactive: 3.93%
Cc1cc(=O)n2nc(N3CCCC3C(=O)Nc3cccc(Cl)c3C)sc2n1 (stereo not drawn),–,inactive: -2.63%
CSc1ccccc1C(=O)Nc1cc([N+](=O)[O-])ccc1C,–,inactive: -3.13%
Cc1cccc(NC(=O)CSc2nc(-c3cccs3)cc(C(F)(F)F)c2C#N)c1C,–,inactive: -5.07%
Cc1oc(-c2cccc(Cl)c2)nc1CN1CCC(C(=O)N2CCN(c3ccccn3)CC2)CC1,–,inactive: 2.01%
CCCCCCSc1nnc(-c2cnn(-c3ccccc3)c2-n2cccc2)n1C,"inconclusive: 12.6 µM [inhibitor, single point]",–
O=C([O-])c1cc(-c2ccccc2)cc(-c2ccccc2)[n+]1CCc1ccc(Cl)cc1,"inconclusive: 12.6 µM [inhibitor, partial curve, poor fit]",–
CC1CCc2sc(NC(=S)NC(=O)c3ccccc3)c(C#N)c2C1 (stereo not drawn),"inconclusive: 15.8 µM [inhibitor, single point]",–
COCCCNc1nc2c(S(=O)(=O)c3ccccc3)nnn2c2ccc(Cl)cc12,–,inactive: -5.83%
CC1CCC(NC(=O)CN2C(=O)C3CC=CCC3C2=O)CC1 (stereo not drawn),–,inactive: 2.93%
Cc1[nH]n(-c2ccccc2)c(=O)c1C(c1cc(Cl)ccc1O)c1c(C)[nH]n(-c2ccccc2)c1=O,active: 7.94 µM,–
Cc1cccc(NC2=Nc3ccccc3N3C2=Nc2c(c(C)nn2-c2ccccc2)C3c2ccc(O)c(O)c2)c1 (stereo not drawn),"inconclusive: 20 µM [inhibitor, single point]",–
CCCc1c(C)nc(N2CCN(c3ccccc3OC)CC2)[nH]c1=O,–,inactive: -20.6%
COCCN1Cc2cc3cc(C)ccc3nc2SC1=Nc1ccc(OC)cc1,–,inactive: -1.64%
CC(C)Oc1ccc(CN2CCc3nc(Nc4ccc5c(c4)OCCO5)ncc3C2)cc1,"inconclusive: 8.91 µM [inhibitor, partial curve]",–
Cc1ccc(OCc2ccc(C(=O)Nc3nc4ccccc4n3Cc3ccccc3)o2)c([N+](=O)[O-])c1,–,inactive: 1.43%
O=C(c1sccc1Cl)N1CCN(Cc2ccc3c(c2)OCO3)CC1,"inconclusive: 31.6 µM [inhibitor, single point]",–
CCOc1ccccc1N1CCN(C(=S)NC(=O)C23CC4CC(CC(C4)C2)C3)CC1,"inconclusive: 11.2 µM [inhibitor, partial curve]",–

Structure (SMILES),Potency,"activity, negative = inhibition"
CC(NC(=O)CN1C(=O)COc2ccc(S(=O)(=O)N3CCCCCC3)cc21)c1ccccc1 (stereo not drawn),"inconclusive: 12.6 µM [inhibitor, single point]",–
CC(C)C[C@@H](CN1CCC[C@@H]1CN1C(=O)C(=O)NC[C@@H]1Cc1ccccc1)N1C[C@H](Cc2ccc(O)cc2)N(CCc2ccccc2)C(=O)C1=O,"inconclusive: 12.6 µM [inhibitor, single point]",–
COC(=O)c1ccc(NC(=O)CN2CCCN(Cc3ccc(Cl)cc3)S2(=O)=O)cc1,"inconclusive: 35.5 µM [inhibitor, single point]",–
CCN(CC)S(=O)(=O)c1cccc(NC(=O)c2ccc(Sc3nncn3C)c([N+](=O)[O-])c2)c1,"inconclusive: 12.6 µM [inhibitor, partial curve, poor fit]",–
CCCc1nnc(NC(=O)CN2C(=O)c3ccccc3C2=O)s1,–,inactive: 3.75%
COc1ccc(Cn2nnnc2C(c2ccccn2)N2CCN(c3cc(Cl)ccc3C)CC2)cc1 (stereo not drawn),"inconclusive: 11.2 µM [inhibitor, single point]",–
O=C(NC(=S)Nc1ccccc1Br)C1CCCC1,–,inactive: -23.8%
COc1cccc(CNc2nc3ccccc3c3nc(-c4cccc(C)c4)nn23)c1,–,inactive: 0%
COc1ccc(-c2cc(-c3ccccc3)nc(SCC(=O)Nc3ccccc3C)c2C#N)cc1,–,inactive: -9.11%
Cc1cccc(NC(=O)CSc2ncc(-c3ccc(Br)cc3)[nH]2)c1,"inconclusive: 22.4 µM [inhibitor, single point]",–
C#CCOCCOCCOCCNc1nc(N2CCN(C(=O)CCCCCCCCCCNC(=O)[C@H]([C@@H](C)CC)n3cc(CCCCN=C(N)N)nn3)CC2)nc(N2CCN(C(=O)CCCCCCCCCCNC(=O)[C@@H]([C@H](C)O)n3cc(C)nn3)CC2)n1,"inconclusive: 17.8 µM [inhibitor, single point]",–
Cc1cccc(-c2nc(CCNC(=O)COc3ccccc3)cs2)c1,–,inactive: 0%
COC(=O)COc1ccc2oc(=O)cc(-c3cc4cccc(OC)c4o3)c2c1,–,inactive: 8.03%
COC(=O)[C@@]12CCCCN1[C@H](c1ccc(SC3CCCCC3)c(OC)c1)[C@@H]1C(=O)N(C)C(=O)[C@@H]12,"inconclusive: 22.4 µM [inhibitor, single point]",–
COc1ccc(S(=O)(=O)c2c(Nc3c(C)cccc3C)sc(C(=O)c3ccc(F)cc3)c2N)cc1,"inconclusive: 0.708 µM [inhibitor, partial curve, poor fit]",–
CCC(=O)Nc1nc(C)c(-c2csc(Nc3cccc(O)c3)n2)s1,"inconclusive: 14.1 µM [inhibitor, partial curve, poor fit]",–
O=C(CC1N=C2c3ccccc3N=C(SCc3ccc(F)cc3)N2C1=O)NC1CCCCC1 (stereo not drawn),"inconclusive: 1.12 µM [inhibitor, partial curve]",–
CCOC(=O)c1c(-c2ccc(C)o2)csc1NC(=O)CN1CCC(C(N)=O)CC1,"inconclusive: 6.31 µM [inhibitor, single point]",–
CCOc1ccc(CCNC(=O)c2cccc(Nc3nc4ccccc4nc3-n3nc(C)cc3C)c2)cc1OCC,–,inactive: 7.92%
COc1ccc(NC(=S)Nc2cc(C)ccn2)c(OC)c1,"inconclusive: 4.47 µM [inhibitor, full curve, poor fit]",–
O=C(Nc1ccncc1)Nc1ccc(F)c(Cl)c1,–,inactive: -24.5%
COc1ccc(Nc2ncnc3c2cnn3Cc2ccccc2)cc1OC,–,inactive: -9.64%
O=C(CCl)c1ccc2c(c1)CCCC2,–,inactive: 4.14%

Structure (SMILES),Potency,"activity, negative = inhibition"
Cc1nc2nc(Cc3ccccc3)[nH]n2c(=O)c1Cl,"inconclusive: 15.8 µM [inhibitor, single point]",–
O=C(NC1(C(=O)NC2CCCCC2)CCCCC1)c1ccccn1,–,inactive: 0.3%
Cn1cc(SCC(=O)NCc2ccc(F)cc2)c2ccccc21,"inconclusive: 6.31 µM [inhibitor, single point]",–
CCOc1ccccc1NC(=O)C1CCC(CNS(=O)(=O)c2ccc3c(c2)CCCC(=O)N3)CC1 (stereo not drawn),"inconclusive: 35.5 µM [inhibitor, single point]",–
Cc1ccc(CNC(=O)c2ccccc2SCC(=O)NCC2CCCCC2)cc1,"inconclusive: 2 µM [inhibitor, partial curve, poor fit]",–
COc1ccc(-n2c(COc3ccc(Cl)cc3Cl)n[nH]c2=S)cc1,"inconclusive: 5.62 µM [inhibitor, single point]",–
COc1ccc(C(=O)NC2CCCCCCC2)cc1OC,"inconclusive: 35.5 µM [inhibitor, single point]",–
Cc1ccc2nc(NC(=O)COC(=O)CSc3nc(C)cc(C)n3)sc2c1,"inconclusive: 35.5 µM [inhibitor, single point]",–
Cc1ccc(-n2c(C)cc(C3=NNC(=NC4CC4)SC3)c2C)cc1C,"inconclusive: 35.5 µM [inhibitor, single point]",–
O=C(CN(Cc1ccco1)C(=O)CNS(=O)(=O)c1ccc(F)cc1)NCc1ccccc1,–,inactive: 5.79%
O=C(c1cccs1)c1cn(CCOc2ccc(Cl)cc2)c2ccccc12,"inconclusive: 4.47 µM [inhibitor, single point]",–
COc1ccc(-c2coc3cc(OC(C)=O)c(OC)cc3c2=O)cc1,–,inactive: 0.122%
Cc1ccc(NC(=O)CSC2=C(C#N)C(c3ccco3)C3=C(CCCC3=O)N2)cc1 (stereo not drawn),–,inactive: -16.5%
COc1ccc(C(CNC(=O)c2ccc(OCc3c(C)noc3C)cc2)N2CCCC2)cc1 (stereo not drawn),–,inactive: 4.44%
O=C(NC(Nc1ncc(S(=O)(=O)c2ccc([N+](=O)[O-])cc2)s1)(C(F)(F)F)C(F)(F)F)c1ccc(Cl)cc1,"inconclusive: 0.891 µM [inhibitor, full curve, poor fit]",–
O=S(=O)(NC1CCCCC1)c1ccc(F)c2ccccc12,"inconclusive: 15.8 µM [inhibitor, single point]",–
Cc1cccc(-n2cc(CN3CCN(Cc4nccn4C)CC3)c(-c3cccc(F)c3)n2)c1,"inconclusive: 12.6 µM [inhibitor, single point]",–
CCC(=O)Oc1cc(C(C)(C)C)cc2cc(-c3nc(-c4ccc(OC)cc4OC)no3)c(=O)oc12,"inconclusive: 7.08 µM [inhibitor, partial curve]",–
Cc1ccc(-c2nc(CS(=O)CC(=O)NC(C)CCc3ccccc3)c(C)o2)cc1 (stereo not drawn),"inconclusive: 12.6 µM [inhibitor, single point]",–
O=C(/C=C/c1ccccc1Cl)Nc1cccc(S(=O)(=O)NC2=NCCCCC2)c1,"inconclusive: 22.4 µM [inhibitor, single point]",–
Cc1ccc(-c2cnc(NC(=O)c3cccc(Br)c3)s2)c(C)c1,"inconclusive: 35.5 µM [inhibitor, single point]",–
CN1CCC(C(=O)N2CCCC(C(=O)c3ccc4c5c(cccc35)CC4)C2)CC1 (stereo not drawn),–,inactive: -3.32%
